No constants are given. Whether binding was seen depends on the method and setting. For some assays here: Binding seen in cells or lysates may run through a third protein. Some binding calls cover weakened binding; strength is not graded here. Sequences can lack the tags named with a protein.
T1: CP190 from Drosophila S2 cells (Drosophila melanogaster (endogenous in S2 cells)) (UniProt Q24478)
T1 sequence: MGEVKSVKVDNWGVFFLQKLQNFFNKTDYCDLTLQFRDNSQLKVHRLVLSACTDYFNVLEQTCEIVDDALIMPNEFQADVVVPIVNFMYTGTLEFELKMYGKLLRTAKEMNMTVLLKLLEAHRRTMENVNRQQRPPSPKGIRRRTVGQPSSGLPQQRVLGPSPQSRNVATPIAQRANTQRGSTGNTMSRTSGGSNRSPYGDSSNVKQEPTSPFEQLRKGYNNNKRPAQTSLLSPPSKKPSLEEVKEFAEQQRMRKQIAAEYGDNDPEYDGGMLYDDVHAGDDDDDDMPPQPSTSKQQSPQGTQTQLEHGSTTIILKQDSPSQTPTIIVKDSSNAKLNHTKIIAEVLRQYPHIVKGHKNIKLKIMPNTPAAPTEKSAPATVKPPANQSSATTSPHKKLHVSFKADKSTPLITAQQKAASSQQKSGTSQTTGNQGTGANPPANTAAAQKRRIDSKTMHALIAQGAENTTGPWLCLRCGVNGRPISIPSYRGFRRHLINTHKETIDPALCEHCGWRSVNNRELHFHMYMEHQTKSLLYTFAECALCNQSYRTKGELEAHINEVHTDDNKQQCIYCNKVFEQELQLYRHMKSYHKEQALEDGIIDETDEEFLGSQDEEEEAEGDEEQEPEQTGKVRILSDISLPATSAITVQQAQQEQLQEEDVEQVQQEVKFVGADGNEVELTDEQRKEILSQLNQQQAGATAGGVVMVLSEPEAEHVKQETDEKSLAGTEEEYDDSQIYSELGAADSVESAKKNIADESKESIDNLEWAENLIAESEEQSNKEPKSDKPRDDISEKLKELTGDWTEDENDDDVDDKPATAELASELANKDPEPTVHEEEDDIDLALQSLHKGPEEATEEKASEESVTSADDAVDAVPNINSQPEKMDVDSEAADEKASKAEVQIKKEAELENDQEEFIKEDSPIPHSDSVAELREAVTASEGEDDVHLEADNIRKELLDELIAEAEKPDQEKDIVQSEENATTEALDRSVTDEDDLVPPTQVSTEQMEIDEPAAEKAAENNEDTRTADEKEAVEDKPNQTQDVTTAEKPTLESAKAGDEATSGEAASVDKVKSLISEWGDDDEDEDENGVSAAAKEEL

T2: 3xFLAG-tagged N-terminal dCTCF-(nuclear localization signal)-LexA fusion protein (Drosophila melanogaster) (UniProt Q9VS55)
T2 sequence: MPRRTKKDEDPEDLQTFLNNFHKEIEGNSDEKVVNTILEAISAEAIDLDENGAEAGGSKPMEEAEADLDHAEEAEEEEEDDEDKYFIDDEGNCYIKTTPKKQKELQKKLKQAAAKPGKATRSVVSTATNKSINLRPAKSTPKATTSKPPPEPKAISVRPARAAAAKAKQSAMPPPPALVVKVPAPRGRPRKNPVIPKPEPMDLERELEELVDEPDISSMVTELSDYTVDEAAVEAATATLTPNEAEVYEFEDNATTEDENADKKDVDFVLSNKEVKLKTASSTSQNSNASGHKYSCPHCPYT

T3: full-length CP190 (yeast two-hybrid) (Drosophila) (UniProt Q24478)
T3 sequence: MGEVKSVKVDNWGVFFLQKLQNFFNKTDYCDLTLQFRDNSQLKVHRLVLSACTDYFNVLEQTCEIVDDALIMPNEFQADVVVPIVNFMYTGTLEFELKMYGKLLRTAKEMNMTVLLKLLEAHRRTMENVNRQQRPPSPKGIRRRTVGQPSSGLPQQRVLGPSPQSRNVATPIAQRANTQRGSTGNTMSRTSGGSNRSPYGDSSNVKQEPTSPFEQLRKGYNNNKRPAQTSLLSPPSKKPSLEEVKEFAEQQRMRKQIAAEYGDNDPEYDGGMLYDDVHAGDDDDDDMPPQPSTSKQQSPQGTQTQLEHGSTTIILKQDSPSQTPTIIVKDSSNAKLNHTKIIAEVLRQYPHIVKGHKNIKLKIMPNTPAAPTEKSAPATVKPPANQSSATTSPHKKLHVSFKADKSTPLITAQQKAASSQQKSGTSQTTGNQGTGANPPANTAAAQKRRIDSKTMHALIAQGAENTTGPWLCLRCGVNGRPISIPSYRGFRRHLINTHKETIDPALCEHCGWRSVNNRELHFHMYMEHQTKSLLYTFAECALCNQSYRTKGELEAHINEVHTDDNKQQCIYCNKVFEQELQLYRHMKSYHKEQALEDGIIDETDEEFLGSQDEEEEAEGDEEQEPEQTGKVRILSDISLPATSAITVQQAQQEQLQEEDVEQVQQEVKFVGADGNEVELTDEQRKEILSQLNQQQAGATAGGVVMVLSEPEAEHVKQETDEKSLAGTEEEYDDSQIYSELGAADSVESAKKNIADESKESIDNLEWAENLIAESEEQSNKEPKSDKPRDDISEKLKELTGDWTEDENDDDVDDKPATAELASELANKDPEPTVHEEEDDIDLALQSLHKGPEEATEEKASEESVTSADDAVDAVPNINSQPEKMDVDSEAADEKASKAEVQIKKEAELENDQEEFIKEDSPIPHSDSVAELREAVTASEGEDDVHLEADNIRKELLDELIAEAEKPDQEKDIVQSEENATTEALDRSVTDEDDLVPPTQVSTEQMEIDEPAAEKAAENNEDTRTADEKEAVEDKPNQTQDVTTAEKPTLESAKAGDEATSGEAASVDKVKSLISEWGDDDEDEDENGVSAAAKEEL


Columns and labels:
[1] = biological target: T1, CP190 from Drosophila S2 cells (Drosophila melanogaster (endogenous in S2 cells)); experiment: co-IP; CP190 antibodies on Protein A or G beads, nuclear lysate of S2 cells expressing FLAG-tagged dCTCF forms, overnight +4 °C; washes with 500 mM NaCl
[2] = biological target: T2, 3xFLAG-tagged N-terminal dCTCF-(nuclear localization signal)-LexA fusion protein (Drosophila melanogaster); experiment: chromatin immunoprecipitation of a reporter to which a LexA fusion is tethered; S2 cells co-transfected with the 4xLexA-TATA reporter and the 3xFLAG-N-terminal dCTCF-NLS-LexA construct; formaldehyde-fixed chromatin precipitated with antibodies against the dCTCF C-terminus, dCTCF N-terminus, CP190 or FLAG
[3] = biological target: T3, full-length CP190 (yeast two-hybrid) (Drosophila); experiment: two-hybrid; yeast; dCTCF or its parts fused to GAL4 AD, CP190 or its sub-fragments fused to GAL4 DNA BD (Fig. 3b)

Row | binding [1] | Binder | also measured
1 | no binding | FLAG-tagged dCTCFΔ610-723 (protein, UniProt Q9VS55) MPRRTKKDEDPEDLQTFLNNFHKEIEGNSDEKVVNTILEAISAEAIDLDENGAEAGGSKPMEEAEADLDHAEEAEEEEEDDEDKYFIDDEGNCYIKTTPKKQKELQKKLKQAAAKPGKATRSVVSTATNKSINLRPAKSTPKATTSKPPPEPKAISVRPARAAAAKAKQSAMPPPPALVVKVPAPRGRPRKNPVIPKPEPMDLERELEELVDEPDISSMVTELSDYTVDEAAVEAATATLTPNEAEVYEFEDNATTEDENADKKDVDFVLSNKEVKLKTASSTSQNSNASGHKYSCPHCPYTASKKFLITRHSRSHDVEPSFKCSICERSFRSNVGLQNHINTHMGNKPHKCKLCESAFTTSGELVRHTRYKHTKEKPHKCTECTYASVELTKLRRHMTCHTGERPYQCPHCTYASQDMFKLKRHMVIHTGEKKYQCDICKSRFTQSNSLKAHKLIHSVVDKPVFQCNYCPTTCGRKADLRVHIKHMHTSDVPMTCRRCGQQLPDRYQYKLHVKSHEGEKCYSCKLCSYASVTQRHLASHMLIHLDEKPFHCDQCPQAFRQRQLLRRHMNLVHNEEYQPPEPREKLHKCPSCPREFTHKGNLMRHMETHQRGTKTFHIKEEPDNSDFTVEWQGDDGEVMVVELVNGDEEVLVKHEPSANSKISAKNCFGFEDDDDYEEYGDGENEVDGASQEFLQLMDMIEQDS | 
2 | no binding | FLAG-tagged dCTCFΔ774-818 (protein, UniProt Q9VS55) MPRRTKKDEDPEDLQTFLNNFHKEIEGNSDEKVVNTILEAISAEAIDLDENGAEAGGSKPMEEAEADLDHAEEAEEEEEDDEDKYFIDDEGNCYIKTTPKKQKELQKKLKQAAAKPGKATRSVVSTATNKSINLRPAKSTPKATTSKPPPEPKAISVRPARAAAAKAKQSAMPPPPALVVKVPAPRGRPRKNPVIPKPEPMDLERELEELVDEPDISSMVTELSDYTVDEAAVEAATATLTPNEAEVYEFEDNATTEDENADKKDVDFVLSNKEVKLKTASSTSQNSNASGHKYSCPHCPYTASKKFLITRHSRSHDVEPSFKCSICERSFRSNVGLQNHINTHMGNKPHKCKLCESAFTTSGELVRHTRYKHTKEKPHKCTECTYASVELTKLRRHMTCHTGERPYQCPHCTYASQDMFKLKRHMVIHTGEKKYQCDICKSRFTQSNSLKAHKLIHSVVDKPVFQCNYCPTTCGRKADLRVHIKHMHTSDVPMTCRRCGQQLPDRYQYKLHVKSHEGEKCYSCKLCSYASVTQRHLASHMLIHLDEKPFHCDQCPQAFRQRQLLRRHMNLVHNEEYQPPEPREKLHKCPSCPREFTHKGNLMRHMETHDDSANAREKRRRLKLGRNVRLQKDGTVITLIKDQYVDMDRDQEENEEDDNPESYDLAEIEPENSEAEDADDDVETIVSDPIRQRIKPAPIIINKQARLAASEKQPMIINQRLRSQRGTKTFHIKEEPDNSDFTVEWQGDDGEVMVVELVNGDEEVLVKHEPSAN | 
3 |  | endogenous full-length dCTCF (protein, UniProt Q9VS55 1-818) MPRRTKKDEDPEDLQTFLNNFHKEIEGNSDEKVVNTILEAISAEAIDLDENGAEAGGSKPMEEAEADLDHAEEAEEEEEDDEDKYFIDDEGNCYIKTTPKKQKELQKKLKQAAAKPGKATRSVVSTATNKSINLRPAKSTPKATTSKPPPEPKAISVRPARAAAAKAKQSAMPPPPALVVKVPAPRGRPRKNPVIPKPEPMDLERELEELVDEPDISSMVTELSDYTVDEAAVEAATATLTPNEAEVYEFEDNATTEDENADKKDVDFVLSNKEVKLKTASSTSQNSNASGHKYSCPHCPYTASKKFLITRHSRSHDVEPSFKCSICERSFRSNVGLQNHINTHMGNKPHKCKLCESAFTTSGELVRHTRYKHTKEKPHKCTECTYASVELTKLRRHMTCHTGERPYQCPHCTYASQDMFKLKRHMVIHTGEKKYQCDICKSRFTQSNSLKAHKLIHSVVDKPVFQCNYCPTTCGRKADLRVHIKHMHTSDVPMTCRRCGQQLPDRYQYKLHVKSHEGEKCYSCKLCSYASVTQRHLASHMLIHLDEKPFHCDQCPQAFRQRQLLRRHMNLVHNEEYQPPEPREKLHKCPSCPREFTHKGNLMRHMETHDDSANAREKRRRLKLGRNVRLQKDGTVITLIKDQYVDMDRDQEENEEDDNPESYDLAEIEPENSEAEDADDDVETIVSDPIRQRIKPAPIIINKQARLAASEKQPMIINQRLRSQRGTKTFHIKEEPDNSDFTVEWQGDDGEVMVVELVNGDEEVLVKHEPSANSKISAKNCFGFEDDDDYEEYGDGENEVDGASQEFLQLMDMIEQDS | binding [2]: binds
4 |  | full-length dCTCF fused to the GAL4 activation domain (protein, UniProt Q9VS55 1-818) MPRRTKKDEDPEDLQTFLNNFHKEIEGNSDEKVVNTILEAISAEAIDLDENGAEAGGSKPMEEAEADLDHAEEAEEEEEDDEDKYFIDDEGNCYIKTTPKKQKELQKKLKQAAAKPGKATRSVVSTATNKSINLRPAKSTPKATTSKPPPEPKAISVRPARAAAAKAKQSAMPPPPALVVKVPAPRGRPRKNPVIPKPEPMDLERELEELVDEPDISSMVTELSDYTVDEAAVEAATATLTPNEAEVYEFEDNATTEDENADKKDVDFVLSNKEVKLKTASSTSQNSNASGHKYSCPHCPYTASKKFLITRHSRSHDVEPSFKCSICERSFRSNVGLQNHINTHMGNKPHKCKLCESAFTTSGELVRHTRYKHTKEKPHKCTECTYASVELTKLRRHMTCHTGERPYQCPHCTYASQDMFKLKRHMVIHTGEKKYQCDICKSRFTQSNSLKAHKLIHSVVDKPVFQCNYCPTTCGRKADLRVHIKHMHTSDVPMTCRRCGQQLPDRYQYKLHVKSHEGEKCYSCKLCSYASVTQRHLASHMLIHLDEKPFHCDQCPQAFRQRQLLRRHMNLVHNEEYQPPEPREKLHKCPSCPREFTHKGNLMRHMETHDDSANAREKRRRLKLGRNVRLQKDGTVITLIKDQYVDMDRDQEENEEDDNPESYDLAEIEPENSEAEDADDDVETIVSDPIRQRIKPAPIIINKQARLAASEKQPMIINQRLRSQRGTKTFHIKEEPDNSDFTVEWQGDDGEVMVVELVNGDEEVLVKHEPSANSKISAKNCFGFEDDDDYEEYGDGENEVDGASQEFLQLMDMIEQDS | binding [3]: binds
5 | binds | FLAG-tagged wild-type dCTCF (protein, UniProt Q9VS55 1-818) MPRRTKKDEDPEDLQTFLNNFHKEIEGNSDEKVVNTILEAISAEAIDLDENGAEAGGSKPMEEAEADLDHAEEAEEEEEDDEDKYFIDDEGNCYIKTTPKKQKELQKKLKQAAAKPGKATRSVVSTATNKSINLRPAKSTPKATTSKPPPEPKAISVRPARAAAAKAKQSAMPPPPALVVKVPAPRGRPRKNPVIPKPEPMDLERELEELVDEPDISSMVTELSDYTVDEAAVEAATATLTPNEAEVYEFEDNATTEDENADKKDVDFVLSNKEVKLKTASSTSQNSNASGHKYSCPHCPYTASKKFLITRHSRSHDVEPSFKCSICERSFRSNVGLQNHINTHMGNKPHKCKLCESAFTTSGELVRHTRYKHTKEKPHKCTECTYASVELTKLRRHMTCHTGERPYQCPHCTYASQDMFKLKRHMVIHTGEKKYQCDICKSRFTQSNSLKAHKLIHSVVDKPVFQCNYCPTTCGRKADLRVHIKHMHTSDVPMTCRRCGQQLPDRYQYKLHVKSHEGEKCYSCKLCSYASVTQRHLASHMLIHLDEKPFHCDQCPQAFRQRQLLRRHMNLVHNEEYQPPEPREKLHKCPSCPREFTHKGNLMRHMETHDDSANAREKRRRLKLGRNVRLQKDGTVITLIKDQYVDMDRDQEENEEDDNPESYDLAEIEPENSEAEDADDDVETIVSDPIRQRIKPAPIIINKQARLAASEKQPMIINQRLRSQRGTKTFHIKEEPDNSDFTVEWQGDDGEVMVVELVNGDEEVLVKHEPSANSKISAKNCFGFEDDDDYEEYGDGENEVDGASQEFLQLMDMIEQDS | 
